Test results taken from the RNAGym collection of RNA variant scans (doi:10.7554/elife.90254).
Read counts are not given, so values of variants with three or more changes are uncertain.

B1: OR4K15 (parent)
chain: GUUAACGGUCAUAGGCCAUGGAAACUAGGAGCACCAUUUCGCUGCCAGUGAAGAAAUGAACAAAGAAAAUCUGGGCCAGGCAGGCAUCAAAAGAAAUAGUCUUGCGCUCAACCAGAAAGUCUGUAAUCAUUUUAAGGGUA

Variants of: B1
Assay: self-cleavage, relative activity (ratio to wild type); higher = more cleavage; in vitro, sequencing; the parent is a self-cleaving ribozyme

Variant	self-cleavage
A55U U103C A110C	0.04
A55G A60G A118G U131C	1.97
A56G A67G U103C A118G G136A	0.39
A55G U57C A59G A90G	0.15
A55G A67G A111U A126G	0.05
A54U A59G A69G	1.38
A55G A56G A82G A96G U120C	0.17
A55G A69G U97C	1.13
A56G A62U A67C U120C	0.92
A55G A82U U103C	0.08
A55U G73A A94G A95G U100C	0.21
A55G A63U U87A	1.65
A55G A59U A67G U72A	0
A56G A66G A110G A125G	0.03
A55G U57A A66G A82G	0.27
A55G A62G A78G	0.32
A54U A126C A135G	0.37
A55G G80C A94G A111G	0.04
A55G A67G U124C	1.32
A55G A59G A66U	0.42
A55G A56G G74A	0.21
A56G A64G A66G	0.67
A55G A86G A118G	1.08
A55G A63G A125G A126G	0.15

Variant	self-cleavage
A55U A62U A95G	0.74
A55G U72C U108C	0.01
A55G A66U U87C A110G	0.15
A55G U72C G75A	0.28
A55G A67G A89G A114G	0.32
A55G G74U U122C	0.09
A55G A69G G74A	0.15
A54U A114U U127C	0.02
A55C U127A A135G	0.88
A56G A78U A89G A92G U122C	0.04
A55G A62C A82G A94G	0.46
A54U A60U A68G	1.22
A55G A89G A140G	0.49
A55G U57C A89G U97C U132C	0.66
A55G A67G A114U	0.08
A54U U70C A96G	0.75
A56G A68G U87G A89G A91G A95G C112A	0.03
A55G A90G U103C	0.5
A55G A69U A125G	0.65
A54U G104A A117G	0.02
A56G A60G A95G A134G	1.63
A56G A68G A114U	0.05
A55G A68G U87C U122C	1.19
A56G A66G A78G U87C A118C	0.11

Variant	self-cleavage
A55U G93A A116U	0.09
A55G A63G G74U A91G	0.21
A56G A59G A82G	0.73
A56C A64G U132C	0.51
A55U A67G U87C A110G	0.09
A55G A78G C88U	0.21
A55U U102C G115C C128U	0.1
A55G A110U A114G A118G	0.37
A55U U103G A117G A129G	0.01
A55G A94G U103C	0.46
A56G A86U U124C	0.76
A56G A63G A82U	0.28
A55G C105U A117G	0.07
A54U U87A U120C A135G	0.97
A55U U100C U103C A114G A117G	0.43
A55G A89U U102C U103C	0.23
A55G A78G A114G	0.01
A55G A86U A95G	2.26
A55G A68G A90C	1.76
A55G U132G U133G	1.23
A55G A63G A68G	0.28
A55G U108C A126G	0
A55U A60G G73A A86G	0.32
A55G U70A A78G U102C	0.17

Variant	self-cleavage
A56G A82U G106A	0
A55G A95G A96G	1.14
A56G A82U A94G U130C A135G	0.1
A55G U102C A140G	1.47
A55G A56G A59U	0.76
A55G A90G A118G U132C	0.16
A56G A63G A94G U120C U131C	1.24
A56G A66G U130C	1.91
A56G A63G A117G	1.24
A55G A63C U72C A117G	0.47
A54U U87A G104A	0.06
A55G A78U A126G	0.31
A54U A62G A126G	1.48
A54U U102C U132C	1.95
A55G A60G U103C	0.72
A55G A90G A94G	0.8
A55G A60G A68U A69G U97C	0.57
A54U A63C U130C	2
A55G U87C U120A	2.03
A55G A59G A60G A67G	0.31
A56G A86G A140G	1.16
A55G A62G A98G A126G	0.18
A55G A63G A126G	0.93
A55G U72C A110G U130C	0.04

Variant	self-cleavage
A56G A60C A92G	0.67
A55G A78U U132C	0.17
A56G A59G A89U U108C	0.04
A55G A114G U120A	0.06
A54U A60G A67G A89G U131C	0.33
A55U G106A A117C C128A	0.01
A55G A67G A86G A125G	0.06
A55C A64G U108A	0.01
A55G A110U A116G	0.33
A54U A67G U131C	1.46
A55G A62G A91G	0.78
A55G A68G U70C	0.3
A55G A62C A64U C71A A92G U122C	0.14
A56G A59G A95G U103C A110G A116G	0.03
A55U U70C U103C	0.58
A55G U102C A118G	1.47
A55C A118G U120C	0.11
A56G A67G U72A U103C C113A	0.08
A54U A59G U100G	1.55
A56G A68G U103C U130C	1.41
A55G A62G A86G A98U A111G U132A A135G	0
A55G A82U A86G A111G	0.01
A56G A60G A90G A98G A111U U122C	0.01
A55G U124C U131C	0.04

Variant	self-cleavage
A55G A68G G75A A86G A126C	0.11
A55U A91G U122C	0.23
A56G A78U U87C A118G	0.16
A55G A63G U124A	0.61
A56G A67G A86G U122C	0.27
A55U A64G A118G U130C	1
A55G A60G A135U	0.42
A55G A64G A118G	0.82
A55C A59U A90G A114G A118G	0.06
A56G A59U A62G U72C	0.23
A55G G58U A62U A114C	0.05
A55G A60G C112A	0.07
A55G A69G A91G U97A	1.03
A56G A59U A125G	0.66
A55G A92G U97C U132C	1.31
A55G A62G A64U	1.81
A55G A67C A86G	0.72
A55G U72G C85A	0.14
A55G A94G C128A U132C	0.82
A55G U100C A116U	0.52
A55U A90G A135C	0.97
A55G A111G U127C U131C	0.01
A55G U70C A98G G137A	0.25
A56G A59G U102C	1.52

Variant	self-cleavage
A55G U87C A90G A91G U102C C105U	0.07
A54U A68G U72C	0.26
A54U A56U A89G	0.98
A55G A59G A94G	0.9
A55G A126G U127C	0.56
A56G A64G A78U	0.12
A54U U70A U108G	0.04
A55U A63G A98G	0.35
A55G U72A U100C	0.43
A56C A67G A126U	0.59
A55G U102C A111G	0.02
A56G A60G U127A	1.26
A54U A78G A92G A96G	0.27
A55G U57A A92G G123A	1.13
A55G U87C A96G	1.86
A55G A60G A64G	1.02
A55U A95G U122C A126G	1.87
A55G A86G A114G U131C	0.2
A55U A60G A116G	0.4
A55G A62G U130C U132A	1.08
A55G U108C G137A	0.02
A55G A56C U122A	1.97
A55U A60C A69U	0.51
